{"source": "paper PMC11149917", "about": "“Translational and Therapeutic Evaluation of RAS-GTP Inhibition by RMC-6236 in RAS-Driven Cancers” (Cancer Discovery, 2024)", "test_system": "PRISM panel of 845 cancer cell lines", "experiment": "PRISM assay", "assay_type": "cell-based, human", "description": "The PRISM cell set comprised 845 cell lines representing more than 45 lineages (see Supplementary Table S1 for cell line information), which largely overlapped with the Cancer Cell Line Encyclopedia; https://portals.broadinstitute.org/ccle). Cell lines were grown in RPMI without phenol red and supplemented with 10% or 20% FBS for adherent and suspended lines, respectively. Parental cell lines were stably infected with a unique 24-nucleotide DNA barcode via lentiviral transduction and blasticidin selection. After selection, barcoded cell lines were expanded and subjected to quality control (Mycoplasma contamination test, an SNP test for confirming cell line identity, and barcode ID confirmation). Approved cell lines were then pooled (20–25 cell lines per pool) based on doubling time similarity and frozen in assay-ready vials.\nRMC-6236 was added to 384-well plates at 8-point concentration with 3-fold dilutions in triplicate. These assay-ready plates were then seeded with the thawed cell line pools. Adherent cell pools were plated at 1,250 cells per well, whereas suspension and mixed adherent/suspension pools were plated at 2,000 cells per well. Treated cells were incubated for 5 days, and then lysed. Lysate plates were collapsed together prior to barcode amplification and detection.\nEach cell line's unique barcode is located in the 3′UTR of the blasticidin-resistance gene and therefore is expressed as mRNA. Total mRNA was captured using magnetic particles that recognize polyA sequences. Captured mRNA was reverse-transcribed into cDNA and then the sequence containing the unique PRISM barcode was amplified using PCR. Finally, Luminex beads that recognize the specific barcode sequences in the cell set were hybridized to the PCR products and detected using a Luminex scanner which reports the signal as a median fluorescent intensity (MFI).\n• Each detection well contained 10 control barcodes in increasing abundances as spike-in controls. For each plate, we first create a reference profile by calculating the median of the log2(MFI) values across negative control wells for each of these spiked-in barcodes. • For each well, a monotonic smooth p-spline was fitted to map the spike-in control levels to the reference profile. Next, we transform the log2(MFI) for each cell barcode using the fitted spline to allow well-to-well comparisons by correcting for amplification and detection artifacts. • Next, the separability between negative and positive control treatments was assessed. In particular, we calculated the error rate of the optimum simple threshold classifier between the control samples for each cell line and plate combination. The error rate is a measure of the overlap of the two control sets and was defined as error = (FP + FN)/n, where FP is false positives, FN is false negatives, and n is the total number of controls. A threshold was set between the distributions of positive and negative control log2(MFI) values (with everything below the threshold said to be positive and above said to be negative) such that this value is minimized. Additionally, we also calculated the dynamic range of each cell line. […] Additionally, any cell line that had less than 2 passing replicates was also omitted for the sake of reproducibility. Finally, we computed viability by normalizing with respect to the median negative control for each plate.\nFor every gene with nonsilent mutations in at least four cell lines, we compared the AUC values between cells with and without those mutations using a t test. This analysis was carried out for (i) the full data set; (ii) excluding cell lines with nonsilent KRAS mutations; and (iii) excluding cell lines that have either KRAS or NRAS nonsilent mutations.", "note": "Further values from the same series stand in other lists."}
{"smiles": "CCn1c(-c2cc(N3CCN(C)CC3)cnc2[C@H](C)OC)c2c3cc(ccc31)-c1csc(n1)C[C@H](NC(=O)[C@H]1C[C@@H]1C)C(=O)N1CCC[C@H](N1)C(=O)OCC(C)(C)C2", "note": "[RMC-6236]", "values": [{"measurement": "RMC-6236: RevMed PRISM: AUC", "setting": "cell line KALS1_CENTRAL_NERVOUS_SYSTEM", "value": 0.9052}, {"measurement": "RMC-6236: RevMed PRISM: AUC", "setting": "cell line KARPAS299_HAEMATOPOIETIC_AND_LYMPHOID_TISSUE", "value": 0.5877}, {"measurement": "RMC-6236: RevMed PRISM: AUC", "setting": "cell line KARPAS620_HAEMATOPOIETIC_AND_LYMPHOID_TISSUE, KRAS p.G12D", "value": 0.494}, {"measurement": "RMC-6236: RevMed PRISM: AUC", "setting": "cell line KARPAS1718_HAEMATOPOIETIC_AND_LYMPHOID_TISSUE", "value": 1}, {"measurement": "RMC-6236: RevMed PRISM: AUC", "setting": "cell line KCL22_HAEMATOPOIETIC_AND_LYMPHOID_TISSUE", "value": 0.7594}, {"measurement": "RMC-6236: RevMed PRISM: AUC", "setting": "cell line KD_SOFT_TISSUE", "value": 1}, {"measurement": "RMC-6236: RevMed PRISM: AUC", "setting": "cell line KELLY_AUTONOMIC_GANGLIA", "value": 0.9091}, {"measurement": "RMC-6236: RevMed PRISM: AUC", "setting": "cell line KKU055_BILIARY_TRACT", "value": 1}, {"measurement": "RMC-6236: RevMed PRISM: AUC", "setting": "cell line KMH2_HAEMATOPOIETIC_AND_LYMPHOID_TISSUE", "value": 0.9666}, {"measurement": "RMC-6236: RevMed PRISM: AUC", "setting": "cell line KMRC1_KIDNEY", "value": 1}, {"measurement": "RMC-6236: RevMed PRISM: AUC", "setting": "cell line KMRC3_KIDNEY", "value": 0.9256}, {"measurement": "RMC-6236: RevMed PRISM: AUC", "setting": "cell line KMS11_HAEMATOPOIETIC_AND_LYMPHOID_TISSUE", "value": 0.7986}, {"measurement": "RMC-6236: RevMed PRISM: AUC", "setting": "cell line KMS27_HAEMATOPOIETIC_AND_LYMPHOID_TISSUE, NRAS p.Q61R", "value": 0.4675}, {"measurement": "RMC-6236: RevMed PRISM: AUC", "setting": "cell line KNS42_CENTRAL_NERVOUS_SYSTEM", "value": 0.8422}, {"measurement": "RMC-6236: RevMed PRISM: AUC", "setting": "cell line KNS81_CENTRAL_NERVOUS_SYSTEM", "value": 0.628}, {"measurement": "RMC-6236: RevMed PRISM: AUC", "setting": "cell line KOPN8_HAEMATOPOIETIC_AND_LYMPHOID_TISSUE, KRAS p.G12D", "value": 0.38}, {"measurement": "RMC-6236: RevMed PRISM: AUC", "setting": "cell line KPNYN_AUTONOMIC_GANGLIA", "value": 0.8774}, {"measurement": "RMC-6236: RevMed PRISM: AUC", "setting": "cell line KYSE510_OESOPHAGUS", "value": 0.6513}, {"measurement": "RMC-6236: RevMed PRISM: AUC", "setting": "cell line L82_HAEMATOPOIETIC_AND_LYMPHOID_TISSUE", "value": 0.5122}, {"measurement": "RMC-6236: RevMed PRISM: AUC", "setting": "cell line L363_HAEMATOPOIETIC_AND_LYMPHOID_TISSUE, NRAS p.Q61H", "value": 0.781}, {"measurement": "RMC-6236: RevMed PRISM: AUC", "setting": "cell line LN382_CENTRAL_NERVOUS_SYSTEM", "value": 0.6625}, {"measurement": "RMC-6236: RevMed PRISM: AUC", "setting": "cell line LNZ308_CENTRAL_NERVOUS_SYSTEM", "value": 0.6958}, {"measurement": "RMC-6236: RevMed PRISM: AUC", "setting": "cell line LS513_LARGE_INTESTINE, KRAS p.G12D", "value": 0.3713}, {"measurement": "RMC-6236: RevMed PRISM: AUC", "setting": "cell line LXF289_LUNG", "value": 0.7676}, {"measurement": "RMC-6236: RevMed PRISM: AUC", "setting": "cell line MB1_THYROID", "value": 0.7794}, {"measurement": "RMC-6236: RevMed PRISM: AUC", "setting": "cell line MC116_HAEMATOPOIETIC_AND_LYMPHOID_TISSUE", "value": 0.9435}, {"measurement": "RMC-6236: RevMed PRISM: AUC", "setting": "cell line MDAMB231_BREAST, KRAS p.G13D", "value": 0.689}, {"measurement": "RMC-6236: RevMed PRISM: AUC", "setting": "cell line MDAMB453_BREAST", "value": 0.7834}, {"measurement": "RMC-6236: RevMed PRISM: AUC", "setting": "cell line MELJUSO_SKIN, NRAS p.Q61L, HRAS p.G13D", "value": 0.455}, {"measurement": "RMC-6236: RevMed PRISM: AUC", "setting": "cell line MESSA_SOFT_TISSUE", "value": 0.8726}, {"measurement": "RMC-6236: RevMed PRISM: AUC", "setting": "cell line MFE280_ENDOMETRIUM", "value": 0.7287}, {"measurement": "RMC-6236: RevMed PRISM: AUC", "setting": "cell line MHHNB11_AUTONOMIC_GANGLIA", "value": 0.6251}, {"measurement": "RMC-6236: RevMed PRISM: AUC", "setting": "cell line MKN74_STOMACH", "value": 0.8136}, {"measurement": "RMC-6236: RevMed PRISM: AUC", "setting": "cell line MM127_SKIN, NRAS p.G13R", "value": 0.5705}, {"measurement": "RMC-6236: RevMed PRISM: AUC", "setting": "cell line MOLM13_HAEMATOPOIETIC_AND_LYMPHOID_TISSUE", "value": 0.4387}, {"measurement": "RMC-6236: RevMed PRISM: AUC", "setting": "cell line MOLT3_HAEMATOPOIETIC_AND_LYMPHOID_TISSUE, NRAS p.Q61K", "value": 0.9222}, {"measurement": "RMC-6236: RevMed PRISM: AUC", "setting": "cell line MOLT16_HAEMATOPOIETIC_AND_LYMPHOID_TISSUE", "value": 0.6744}, {"measurement": "RMC-6236: RevMed PRISM: AUC", "setting": "cell line MONOMAC1_HAEMATOPOIETIC_AND_LYMPHOID_TISSUE", "value": 0.7083}, {"measurement": "RMC-6236: RevMed PRISM: AUC", "setting": "cell line MON_SOFT_TISSUE", "value": 0.4149}, {"measurement": "RMC-6236: RevMed PRISM: AUC", "setting": "cell line NALM6_HAEMATOPOIETIC_AND_LYMPHOID_TISSUE, NRAS p.A146T", "value": 0.9095}, {"measurement": "RMC-6236: RevMed PRISM: AUC", "setting": "cell line NCIH226_LUNG", "value": 0.6741}, {"measurement": "RMC-6236: RevMed PRISM: AUC", "setting": "cell line NCIH292_LUNG", "value": 0.6545}, {"measurement": "RMC-6236: RevMed PRISM: AUC", "setting": "cell line NCIH446_LUNG", "value": 1}, {"measurement": "RMC-6236: RevMed PRISM: AUC", "setting": "cell line NCIH508_LARGE_INTESTINE", "value": 0.6279}, {"measurement": "RMC-6236: RevMed PRISM: AUC", "setting": "cell line NCIH522_LUNG", "value": 0.7846}, {"measurement": "RMC-6236: RevMed PRISM: AUC", "setting": "cell line NCIH524_LUNG", "value": 0.99}, {"measurement": "RMC-6236: RevMed PRISM: AUC", "setting": "cell line NCIH747_LARGE_INTESTINE, KRAS p.G13D", "value": 0.4808}]}
